The list shows a part of the results.
B1: PhoQ; a variant is named by its letters at X, in order, P23837 (parent)
chain: MKKLLRLFFPLSLRVRFLLATAAVVLVLSLAYGMVALIGYSVSFDKTTFRLLRGESNLFYTLAKWENNKLHVELPENIDKQSPTMTLIYDENGQLLWAQRDVPWLMKMIQPDWLKSNGFHEIEADVNDTSLLLSGDHSIQQQLQEVREDDDDAEMTHSVAVNVYPATSRMPKLTIVVVDTIPVELKSSYMVWSWFIYVLSANLLLVIPLLWVAAWWSLRPIEALAKEVRELEEHNRELLNPATTRELTSLVRNLNRLLKSERERYDKYRTTLTDLTHSLKTPLXXLQXXLRSLRSEKMSVSDAEPVMLEQISRISQQIGYYLHRASMRGGTLLSRELHPVAPLLDNLTSALNKVYQRKGVNISLDISPEISFVGEQNDFVEVMGNVLDNACKYCLEFVEISARQTDEHLYIVVEDDGPGIPLSKREVIFDRGQRVDTLRPGQGVGLAVAREITEQYEGKIVAGESMLGGARMEVIFGRQHSAPKDE

Variants of: B1
Assay: enrichment ratio after two sorts for PhoP signalling (ratio (wild type AVST 3.29)); higher = more functional
Settings: with PhoP (E. coli)

Variant	enrichment ratio
ERAD	≤ 0.25
QLVE	≤ 0.25
AAIR	≤ 0.25
FQVP	≤ 0.25
SEFI	6.95
SHQF	≤ 0.25
SASL	7.66
YYAI	≤ 0.25
VPVW	≤ 0.25
YPFW	≤ 0.25
LCNM	≤ 0.25
KGFL	≤ 0.25
QRLQ	≤ 0.25
LMSY	≤ 0.25
IFEE	≤ 0.25
FWEA	≤ 0.25
LSCA	≤ 0.25
PHQL	≤ 0.25
QPHV	≤ 0.25
PECE	≤ 0.25
EVEP	≤ 0.25
FSVR	≤ 0.25
DNTL	≤ 0.25
RVMA	≤ 0.25

Variant	enrichment ratio
IIPQ	≤ 0.25
LFSK	≤ 0.25
SWHI	≤ 0.25
GDST	2.69
WMHP	≤ 0.25
TAGS	8.39
PFSF	≤ 0.25
VKAI	≤ 0.25
DYHI	≤ 0.25
FRVR	≤ 0.25
LLPY	≤ 0.25
WVAM	≤ 0.25
EQDH	≤ 0.25
TDPA	≤ 0.25
GEPI	≤ 0.25
PIFI	≤ 0.25
LIKR	≤ 0.25
PKGS	≤ 0.25
DVAT	≤ 0.25
MHKG	≤ 0.25
GTLV	7.85
LYQM	≤ 0.25
TLGM	9.54
NYSL	≤ 0.25

Variant	enrichment ratio
LFLN	≤ 0.25
KMVF	≤ 0.25
EMFH	≤ 0.25
PNAV	≤ 0.25
NWVF	≤ 0.25
WYQN	≤ 0.25
DYQT	≤ 0.25
FMML	≤ 0.25
QDLD	≤ 0.25
AQFI	≤ 0.25
DNIC	≤ 0.25
NDGG	≤ 0.25
SCKW	≤ 0.25
LMIM	≤ 0.25
VDEF	≤ 0.25
PFNP	≤ 0.25
MNEY	≤ 0.25
WPGN	≤ 0.25
NHTP	≤ 0.25
TADI	10.8
EQPV	≤ 0.25
IALN	1.51
MPNM	≤ 0.25
GAPG	≤ 0.25

Variant	enrichment ratio
SCPS	≤ 0.25
FFLW	≤ 0.25
LALG	2.29
TWMV	≤ 0.25
EIFW	≤ 0.25
TMWD	≤ 0.25
MSQR	≤ 0.25
QFWK	≤ 0.25
RFHV	≤ 0.25
MLRI	≤ 0.25
ECTL	≤ 0.25
RTTW	≤ 0.25
AHCL	9.7
VVHA	≤ 0.25
WTTK	≤ 0.25
GWTS	≤ 0.25
AGAA	2.46
MKCL	16.5
YKMT	0.253
GSQN	≤ 0.25
SQKF	≤ 0.25
NLIH	≤ 0.25
WFSM	≤ 0.25
DCPW	≤ 0.25

Variant	enrichment ratio
MTCL	12.8
VSDG	≤ 0.25
LLEY	≤ 0.25
ITIK	≤ 0.25
QITV	≤ 0.25
KIYH	≤ 0.25
TRHP	≤ 0.25
NCFH	≤ 0.25
HPFI	≤ 0.25
GDER	≤ 0.25
VIQS	≤ 0.25
PHYK	≤ 0.25
TTAP	≤ 0.25
HSPY	≤ 0.25
YLWM	≤ 0.25
ISQR	≤ 0.25
CNSA	≤ 0.25
SPVM	≤ 0.25
VKYA	≤ 0.25
SFDW	≤ 0.25
SLAI	15.7
KLWQ	≤ 0.25
HASR	≤ 0.25
WWKS	≤ 0.25

Variant	enrichment ratio
NAIG	≤ 0.25
SIMI	17.4
LLRN	≤ 0.25
VLAA	≤ 0.25
WKGH	≤ 0.25
IEHM	≤ 0.25
HAKW	≤ 0.25
KCWY	≤ 0.25
QKCV	2.74
SQEF	≤ 0.25
IDEI	≤ 0.25
ENVS	≤ 0.25
HCGF	≤ 0.25
MFCG	≤ 0.25
NILG	≤ 0.25
KMSR	≤ 0.25
EKID	≤ 0.25
VFHQ	≤ 0.25
TTHH	11.8
GDCH	≤ 0.25
DPLP	≤ 0.25
SNDG	≤ 0.25
FSDR	≤ 0.25
HGNE	≤ 0.25

Variant	enrichment ratio
LTHD	≤ 0.25
NAKD	≤ 0.25
GHHC	≤ 0.25
EVLN	≤ 0.25
FNDW	≤ 0.25
PYSP	≤ 0.25
FPMQ	≤ 0.25
AQYG	≤ 0.25
SAST	8.9
NFGM	≤ 0.25
PTFR	≤ 0.25
FQEI	≤ 0.25
GHRL	≤ 0.25
DVSF	≤ 0.25
NSLY	≤ 0.25
PAQE	≤ 0.25
SMRS	≤ 0.25
QISC	7.57
IEGL	≤ 0.25
LQLM	2
KKPV	≤ 0.25
VTLF	10.2
YAPR	≤ 0.25
WQRG	≤ 0.25

Variant	enrichment ratio
SYTQ	≤ 0.25
WCHG	≤ 0.25
NTNA	≤ 0.25
TYYA	≤ 0.25
QYYE	≤ 0.25
TPYH	≤ 0.25
WSVT	≤ 0.25
RNEH	≤ 0.25
AIRN	≤ 0.25
ATGM	6.99
DETK	≤ 0.25
DGHA	≤ 0.25
FDCR	1.65
EFVE	≤ 0.25
NYTK	≤ 0.25
SYCL	0.491
WELD	≤ 0.25
FSPL	≤ 0.25
FRFC	≤ 0.25
KLSN	≤ 0.25
DEWD	≤ 0.25
TWMF	≤ 0.25
HDYF	≤ 0.25
QNGV	22.1

Variant	enrichment ratio
ERPH	≤ 0.25
TKCE	7.83
GSGR	≤ 0.25
FDQM	≤ 0.25
KELW	≤ 0.25
RHTH	≤ 0.25
DTPT	≤ 0.25
DDVY	≤ 0.25
MDTE	≤ 0.25
LQVY	≤ 0.25
GKFQ	≤ 0.25
DWWV	≤ 0.25
QLPC	≤ 0.25
QCPS	≤ 0.25
QWHQ	≤ 0.25
TCTQ	21.4
HSFS	≤ 0.25
SAIA	1.81
HRDD	≤ 0.25
QKAL	≤ 0.25
LLHN	≤ 0.25
GYSI	≤ 0.25
RDDQ	≤ 0.25
FIYP	≤ 0.25

Variant	enrichment ratio
TDYH	0.306
FMTL	≤ 0.25
IACW	≤ 0.25
EEYH	≤ 0.25
AESL	11.7
DNLR	≤ 0.25
FHKS	≤ 0.25
NETR	≤ 0.25
VGNL	≤ 0.25
RERN	≤ 0.25
SFTQ	≤ 0.25
KCRN	≤ 0.25
FGAA	≤ 0.25
RMNV	≤ 0.25
FMSV	≤ 0.25
WEIM	≤ 0.25
SLLI	7.62
NDMS	≤ 0.25
QFVI	≤ 0.25
AWQG	≤ 0.25
YMQN	≤ 0.25
KKAF	≤ 0.25
LAIT	≤ 0.25
PYNV	≤ 0.25

Variant	enrichment ratio
QVRI	≤ 0.25
YNGR	≤ 0.25
HEQG	1.5
FHSD	≤ 0.25
GCLD	≤ 0.25
VNNY	≤ 0.25
GDCW	≤ 0.25
VQTS	≤ 0.25
QLSK	≤ 0.25
RYAM	1.26
KIYW	≤ 0.25
LCHM	≤ 0.25
MMHR	≤ 0.25
SNVT	3.04
IYPD	≤ 0.25
NFSS	≤ 0.25
DDWS	≤ 0.25
DMGI	≤ 0.25
ACMW	≤ 0.25
TWPF	≤ 0.25
VCAH	≤ 0.25
GMFT	≤ 0.25
VVQN	≤ 0.25
MQWG	4.64

Variant	enrichment ratio
DRKI	≤ 0.25
QWRH	≤ 0.25
TQCM	33.7
LDYH	≤ 0.25
RYCA	≤ 0.25
QSPL	≤ 0.25
PHFV	≤ 0.25
EFFL	≤ 0.25
DFCG	≤ 0.25
TTIC	≤ 0.25
PQLE	≤ 0.25
MWHS	≤ 0.25
EGGG	≤ 0.25
TFGL	0.381
DICK	≤ 0.25
MPQT	≤ 0.25
GITW	1.88
MCIT	≤ 0.25
GPCY	≤ 0.25
YEHR	≤ 0.25
FNFC	≤ 0.25
AELA	18.7
PSRT	≤ 0.25
KHKY	≤ 0.25

Variant	enrichment ratio
MYWW	≤ 0.25
GDQA	≤ 0.25
SEDL	≤ 0.25
TKSK	≤ 0.25
VQVG	≤ 0.25
RFLQ	≤ 0.25
DGTV	≤ 0.25
FFRV	≤ 0.25
QLSR	≤ 0.25
QPQS	≤ 0.25
AFIQ	≤ 0.25
DVED	≤ 0.25
IRSD	≤ 0.25
DDYY	≤ 0.25
DILY	≤ 0.25
ISDC	≤ 0.25
SSRS	≤ 0.25
IRSF	≤ 0.25

From a collection of fitness landscapes (doi:10.1126/science.1257360)
